Experimental data taken from patent US20200062844A1 (Regeneron, published 2020).

T1: mfFcεR1α.MMH (cynomolgus (Macaca fascicularis))
T1 construct: also called mfFceR1a.MMH; ectodomain of cynomolgus FcεR1α with C-term myc-myc-6×His tag
T1 chain: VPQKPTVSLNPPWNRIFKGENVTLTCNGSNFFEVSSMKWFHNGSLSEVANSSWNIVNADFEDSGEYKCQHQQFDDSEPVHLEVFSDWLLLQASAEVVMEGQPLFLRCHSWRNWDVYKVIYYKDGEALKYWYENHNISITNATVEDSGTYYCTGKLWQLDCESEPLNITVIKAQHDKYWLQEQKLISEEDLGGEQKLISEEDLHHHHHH


Legend:
mfFcεR1α.MMH [1] = biological target: T1, mfFcεR1α.MMH; assay: SPR (Biacore 8k), antibody captured on anti-human Fc, mfFcεR1α.MMH injected, 37°C
Method: (§1) Equilibrium dissociation constants (KD) for human or cynomolgus FcεR1α ectodomain binding to purified anti-FcεR1α monoclonal antibodies (mAbs) and CD3×FcεR1α bispecific antibodies (bsAbs) were determined using a real-time surface plasmon resonance biosensor (SPR-Biacore), Biacore 8k. All binding studies were performed in 10 mM HEPES, 150 mM NaCl, 3 mM EDTA, and 0.05% v/v surfactant Tween-20, pH 7.4 (HBS-ET) running buffer at 25° C. and 37° C.
(§2) The Biacore CM4 sensor surface was first derivatized by amine coupling with a monoclonal mouse anti-human Fc antibody to capture approximately 500-900 RUs anti-FcεR1α monoclonal antibodies or anti-CD3×FcεR1α bispecific monoclonal antibodies. 1 RU (response unit) represents 1 pg of protein per mm², as defined by the manufacturer. The ectodomain of human and cynomolgus FcεR1α reagents were expressed with a C-term myc-myc-6×His tag-hFcεR1α.MMH (SEQ ID NO: 57) and mfFcεR1α.MMH (SEQ ID NO: 58). Different concentrations of FcεR1α reagents were prepared in HBS-ET running buffer (600 nM-7.4 nM; serially diluted by 3-fold) and injected over anti-human Fc captured anti-FcεR1α monoclonal antibodies or anti-CD3×FcεR1α bispecific monoclonal antibodies surfaces for 1 minute at a flow rate of 30 μL/minute. The dissociation of bound FcεR1α reagents was monitored for 4 minutes in HBS-ET running buffer. Association (kₐ) and dissociation (kd) rate constants were determined by fitting the real-time binding sensorgrams to a 1:1 binding model with mass transport limitation using Biacore 8k evaluation software. Binding dissociation equilibrium constants (KD) and dissociative half-lives (t½) were calculated from the kinetic rate constants as: […]

[2] = biological target: T2, human CD3 expressed in Jurkat cells (human, UniProt P07766; P04234; P20963; P09693); assay: cell-based or functional assay
mfFcεR1α.MMH [3] = biological target: T1, mfFcεR1α.MMH; assay: SPR (Biacore 8k), antibody captured on anti-human Fc, mfFcεR1α.MMH injected, 25°C
Method: as §1, §2

[4] = biological target: T2, human CD3 expressed in Jurkat cells; assay: flow cytometry, 70 nM antibody on Jurkat/NFAT-luc cells, No IgE
Method: For flow cytometry analysis, HEK293, HEK293/hFcεR1α/hFcεR1β/hFcεR1γ and HEK293/mf FcεR1α/hFcεR1β/hFcεR1γ cells were collected after dissociation using Enzyme Free Dissociation Buffer (Millipore Cat# S-004), and the cells were pre-incubated with or without 70 nM human IgE, for 30 minutes on ice in FACS buffer (PBS, without Ca⁺⁺ and Mg⁺⁺, (Irvine Scientific, Cat#9240) containing 2% FBS). Jurkat/NFAT-luc cells were also collected. The antibodies at the concentration of 70 nM were then added to 1×10⁶ cells/well of each cell type at 4° C. for 30 minutes. […] Cells were fixed using BD CytoFix™ (Becton Dickinson, Cat. #554655) and analyzed on Accuri™ C6 (BD) or CytoFLEX Flow cytometer (Beckman Coulter). Unstained and secondary antibody alone controls were also tested for all cell lines and a sample was evaluated for viability using the Far Red Fluo viability dye (Thermo Fisher, Cat#L10120) according to the manufacturer's protocol. The results were analyzed using FlowJo software (version 10.0.8, FlowJo) to determine the geometric means of fluorescence for viable cells and the binding ratio was calculated with the mean fluorescence intensity (MFI) of the experimental condition normalized by the MFI of the unstained respective cells.

T2 sequence (P07766 23-207 limits assumed, chain 1 of 4): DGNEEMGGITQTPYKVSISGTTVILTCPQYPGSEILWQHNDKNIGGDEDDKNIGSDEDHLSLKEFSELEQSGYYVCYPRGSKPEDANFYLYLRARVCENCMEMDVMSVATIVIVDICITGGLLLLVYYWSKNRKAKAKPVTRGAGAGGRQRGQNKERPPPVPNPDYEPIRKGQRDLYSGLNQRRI
T2 sequence (P04234 22-171 limits assumed, chain 2 of 4, further chain): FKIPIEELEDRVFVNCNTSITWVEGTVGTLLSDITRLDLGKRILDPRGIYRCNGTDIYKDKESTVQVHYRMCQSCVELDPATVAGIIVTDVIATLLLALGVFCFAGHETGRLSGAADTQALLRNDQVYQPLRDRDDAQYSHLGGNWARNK
T2 sequence (P20963 22-164 limits assumed, chain 3 of 4, further chain): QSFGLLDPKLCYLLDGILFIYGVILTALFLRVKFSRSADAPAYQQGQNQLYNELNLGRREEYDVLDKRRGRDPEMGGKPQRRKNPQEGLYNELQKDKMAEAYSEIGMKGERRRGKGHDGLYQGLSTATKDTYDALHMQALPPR
T2 sequence (P09693 23-182 limits assumed, chain 4 of 4, further chain): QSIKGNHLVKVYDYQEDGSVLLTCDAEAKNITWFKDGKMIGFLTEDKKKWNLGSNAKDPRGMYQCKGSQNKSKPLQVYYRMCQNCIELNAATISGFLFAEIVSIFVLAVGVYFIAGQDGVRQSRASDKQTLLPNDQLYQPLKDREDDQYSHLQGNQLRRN

| 600 nM mfFceR1a.MMH Bound (RU) (mfFcεR1α.MMH [1]) | Kd (mfFcεR1α.MMH [1]) | koff (mfFcεR1α.MMH [1]) | kon (mfFcεR1α.MMH [1]) | t½ (mfFcεR1α.MMH [1]) | Fold Activation, Jurkat/NFAT-luc with HEK293/hFcεR1α/hFcεR1β/hFcεR1γ cells, 10 nM IgE [2] | Fold Activation, Jurkat/NFAT-luc with HEK293/hFcεR1α/hFcεR1β/hFcεR1γ cells, No IgE [2] | 600 nM mfFceR1a.MMH Bound (RU) (mfFcεR1α.MMH [3]) | Kd (mfFcεR1α.MMH [3]) | koff (mfFcεR1α.MMH [3]) | kon (mfFcεR1α.MMH [3]) | t½ (mfFcεR1α.MMH [3]) | Binding Ratio (MFI of Treated/MFI of Unstained) [4] | Binder |
| --- | --- | --- | --- | --- | --- | --- | --- | --- | --- | --- | --- | --- | --- |
| 53 RU | 428 nM | 0.0254 s⁻¹ | 59400 M⁻¹ s⁻¹ | 27 s | 1 fold | 1 fold | 79 RU | 221 nM | 0.0136 s⁻¹ | 61300 M⁻¹ s⁻¹ | 48 s |  | mAb17110 (antibody, human IgG4 S228P, kappa, also called anti-FcεR1α monoclonal antibody) heavy: QVQLQESGPGLVKPSETLSLTCTVSGDSISDYYWIWIRQPPGKGLEWIGYIYYSGSTNYNPSLKSRVTISVATSKNQFSLKLRSVTAADTAMYYCARRNNWNHVRAFDIWGQGTMVTVSSASTKGPSVFPLAPCSRSTSESTAALGCLVKDYFPEPVTVSWNSGALTSGVHTFPAVLQSSGLYSLSSVVTVPSSSLGTKTYTCNVDHKPSNTKVDKRV[human IgG4 Fc with S228P (EU numbers) omitted here] light: [about 100 residues omitted here][about 120 residues omitted here] |
| 81 RU | 330 nM | 0.0328 s⁻¹ | 99400 M⁻¹ s⁻¹ | 21 s | 1 fold | 1 fold | 110 RU | 195 nM | 0.0139 s⁻¹ | 71300 M⁻¹ s⁻¹ | 48 s | 1 | mAb17112 (antibody, human IgG4 S228P, kappa, also called anti-FcεR1α monoclonal antibody) heavy: QVQVQESGPRLVKPSETLSLTCTVSGGSMSSYYWIWIRQPPGKELEWIGYIYYSGSTNYNPSLKSRATISVDTSKNQFSLNLNSVTAADTAVYYCARRNNWNYVRAFDIWGQGTMVTVSSASTKGPSVFPLAPCSRSTSESTAALGCLVKDYFPEPVTVSWNSGALTSGVHTFPAVLQSSGLYSLSSVVTVPSSSLGTKTYTCNVDHKPSNTKVDKRV[human IgG4 Fc with S228P (EU numbers) omitted here] light: [about 100 residues omitted here][about 120 residues omitted here] |
| 38 RU | 510 nM | 0.0264 s⁻¹ | 51700 M⁻¹ s⁻¹ | 26.4 s | 1 fold | 1 fold | 60 RU | 247 nM | 0.0137 s⁻¹ | 55500 M⁻¹ s⁻¹ | 48 s | 1 | mAb17111 (antibody, human IgG4 S228P, kappa, also called anti-FcεR1α monoclonal antibody) heavy: QVQLQESGPGLVKPSETLSLTCTVSGDSINDYYWSWLRQPPGKGLEWIGYIYYSGSTNYNPSLKSRVTISVDTSKNQFSLKLSSVTAADTAVYYCTRRNNWNYVRAFDIWGQGTMVTVSSASTKGPSVFPLAPCSRSTSESTAALGCLVKDYFPEPVTVSWNSGALTSGVHTFPAVLQSSGLYSLSSVVTVPSSSLGTKTYTCNVDHKPSNTKVDKRV[human IgG4 Fc with S228P (EU numbers) omitted here] light: [about 100 residues omitted here][about 120 residues omitted here] |
